Test results published in paper PMC4336329 (PLoS ONE, 2015).
Among all 310,000 compounds or so, about 2,200 (0.71%) showed an effect of 50% or more. The effect is printed as a negative number. The list shows a part of the results.

Biological target: human ether-à-go-go-related gene (hERG) potassium channel (human, UniProt Q12809)
Experiment: primary screen, population patch clamp on CHO cells stably expressing hERG

Sequence of human ether-à-go-go-related gene (hERG) potassium channel (Q12809 whole entry, looked up): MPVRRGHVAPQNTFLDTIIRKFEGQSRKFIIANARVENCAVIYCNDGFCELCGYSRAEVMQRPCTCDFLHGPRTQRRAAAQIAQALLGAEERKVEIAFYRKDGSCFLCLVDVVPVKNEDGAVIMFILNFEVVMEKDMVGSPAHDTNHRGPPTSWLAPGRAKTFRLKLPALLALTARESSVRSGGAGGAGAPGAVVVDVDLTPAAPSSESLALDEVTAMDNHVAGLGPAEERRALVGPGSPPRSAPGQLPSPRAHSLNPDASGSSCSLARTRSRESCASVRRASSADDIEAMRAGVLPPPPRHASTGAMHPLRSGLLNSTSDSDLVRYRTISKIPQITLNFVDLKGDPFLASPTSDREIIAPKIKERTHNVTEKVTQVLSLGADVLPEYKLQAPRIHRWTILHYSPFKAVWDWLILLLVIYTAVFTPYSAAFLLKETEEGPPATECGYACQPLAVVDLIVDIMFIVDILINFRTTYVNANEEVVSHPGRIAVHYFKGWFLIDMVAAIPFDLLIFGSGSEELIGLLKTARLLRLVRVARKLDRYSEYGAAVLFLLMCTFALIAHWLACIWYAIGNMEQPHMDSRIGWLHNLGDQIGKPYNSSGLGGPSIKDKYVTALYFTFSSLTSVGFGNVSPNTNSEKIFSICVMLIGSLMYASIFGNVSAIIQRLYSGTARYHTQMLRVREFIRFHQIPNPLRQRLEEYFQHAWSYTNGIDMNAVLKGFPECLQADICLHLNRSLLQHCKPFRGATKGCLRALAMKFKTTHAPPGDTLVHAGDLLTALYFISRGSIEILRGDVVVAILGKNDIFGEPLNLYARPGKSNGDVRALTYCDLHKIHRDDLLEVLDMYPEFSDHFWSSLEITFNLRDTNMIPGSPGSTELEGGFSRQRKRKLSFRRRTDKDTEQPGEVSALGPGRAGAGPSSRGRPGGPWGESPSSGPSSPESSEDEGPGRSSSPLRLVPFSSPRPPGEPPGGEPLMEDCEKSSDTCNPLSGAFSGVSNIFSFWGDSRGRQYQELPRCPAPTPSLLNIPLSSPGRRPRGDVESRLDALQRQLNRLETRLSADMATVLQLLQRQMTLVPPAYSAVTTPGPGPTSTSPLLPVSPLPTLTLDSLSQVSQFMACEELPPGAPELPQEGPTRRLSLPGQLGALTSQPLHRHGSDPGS

SMILES	hERG current change (%, negative = inhibition) at 1uM [%]
COc1ccc(N(C)S(=O)(=O)c2cccc(C(=O)OCC(=O)NCc3ccccc3OC)c2)cc1	11.8
C/C(=N\N(C)C)C1=C(O)c2ccccc2C1=O	12.1
COc1ccc(CCN(C)C(=O)CCc2nnc(-c3ccccc3)o2)cc1OC	9.69
COCCNC(=O)CC(NS(=O)(=O)c1ccc(C)cc1)c1ccco1 (stereo not shown)	11.4
Cc1ccc(C)c(N2CCN(C(=O)C(Cc3ccccc3)n3cccc3)CC2)c1 (stereo not shown)	8.63
O=[N+]([O-])c1ccc(CSc2nc3ncc(Br)cc3[nH]2)cc1	12.7
C/C(=C\C(=O)c1ncc(C(F)(F)F)cc1Cl)N(C)C	10.7
O=C(NNS(=O)(=O)c1ccc(F)cc1)c1ccc(S(=O)(=O)N2CCCCC2)cc1	-4.46
CCOC(=O)c1c(C)[nH]c(C(=O)OCC(=O)N2CCN(S(=O)(=O)c3ccccc3)CC2)c1C	12.4
ClCc1c2ccccc2cc2ccccc12	6.36
COc1ccc(CCSc2nnc(C3CCCCC3)n2N)cc1	-0.986
C[C@H]1O[C@@H](n2cc(F)c(=O)[nH]c2=O)[C@H](O)[C@@H]1O	2.33
CC(C(=O)NCCN1CCOCC1)c1ccc([N+](=O)[O-])cc1 (stereo not shown)	15.3
O=C(CCc1c[nH]c2ccccc12)N[C@@H](Cc1c[nH]c2ccc(O)cc12)C(=O)O	13.3
COc1ccc(NC(=O)c2cc(S(=O)(=O)N3CCCCC3)c[nH]2)cc1	5.15
O=C(CCc1nnc2ccc(NCc3ccccc3)nn12)N1CCC2(CC1)OCCO2	11
CCN(CC(=O)NCc1ccc(Cl)cc1)C(=O)/C=C/c1cccs1	-9.59
COc1ccc(NC(=O)CN(C)Cc2cccs2)cc1Cl	5.99
COc1ccc(Cl)cc1C(=O)N(Cc1nc(-c2cccc(C)c2)no1)C(C)C	2.82
O=C(COC(=O)CSc1cc(Cl)ccc1Cl)Nc1ncc(C(F)(F)F)cc1Cl	5.04
CCn1c(SCC(=O)N2CCCCC2)nnc1-c1ccc(S(=O)(=O)N2CCN(C)CC2)cc1	-0.867
Nc1cc(=O)[nH]c(SCC(=O)Nc2cccc(Cl)c2Cl)n1	9.56

SMILES	hERG current change (%, negative = inhibition) at 1uM [%]
O/N=C1\CC/C(=N\O)c2nn(-c3ccc(Cl)cc3Cl)nc21	3.01
Cc1cccc(N2CCN(C(=O)c3nn(C)c4c3CS(=O)(=O)c3ccccc3-4)CC2)c1C	4.53
COc1ncccc1C(=O)NC1CCCc2c1cnn2-c1cc(C)cc(C)c1 (stereo not shown)	2.61
COc1c(S(=O)(=O)n2nc(C)cc2C)ccc(Cl)c1Cl	-7.5
CCOC(=O)c1cc(C)sc1NC(=O)CSC1=NCCS1	5
CCc1ccc(NC(=O)c2cc3c(C)nc4ccccc4c3o2)cc1	4.7
Cc1ccc(-c2nnc(-c3ccc(NC(=O)Cc4cccs4)cc3)o2)cc1	1.32
C/C(=C\C(=O)c1ccccc1)NCc1ccc(F)cc1	10
CC(C)(C)c1cc(=O)[nH]c(SCc2ccccc2)n1	20.5
CCOC(=O)Cc1csc(NC(=O)Nc2ccc(Cl)cc2)n1	11.8
CCOC(=O)C1CCN(c2c(NCc3ccc(C(=O)NCCOC)cc3)c(=O)c2=O)CC1	0.388
COc1ccc2oc(C(=O)NC3(C)CCS(=O)(=O)C3)c(C)c2c1 (stereo not shown)	8.86
COc1ccc([C@@H]2[C@@H]3C(=O)N(C(C)(C)C)C(=O)[C@@H]3[C@]3(C)C(=O)N(c4cccc(Cl)c4)C(=O)N23)cc1	12.1
COc1cc(C(=O)Nc2ccccc2NC(=O)c2cc(OC)c(OC)c(OC)c2)cc(OC)c1OC	9.73
O=C1C(=O)N(c2ccccc2)C(c2ccccc2[N+](=O)[O-])/C1=C(\O)c1ccccc1 (stereo not shown)	7.37
O=[N+]([O-])c1cccc(C2=NCCC(c3ccccc3)O2)c1 (stereo not shown)	1.93
COc1ccc(C(CNC(=O)c2ccc(OCC3CCCO3)cc2)N2CCOCC2)cc1 (stereo not shown)	14.8
CCCCNC(=O)Cn1c(=O)c2c(ncn2CCC(C)C)n(Cc2ccccc2)c1=O	14.1
Cc1cc(C)c2c(N)c(S(=O)(=O)c3ccccc3)sc2n1	7.06
N#Cc1ccsc1NC(=O)CSc1ncnc2ccccc12	9.17
Cc1cc(/C=N/Nc2ccc([N+](=O)[O-])cn2)c(C)n1-c1ccc(C(=O)O)cc1	13.3
CN(Cc1ccccc1)C(=O)CCn1c(=O)c2cccn2c2cccnc21	4.49

SMILES	hERG current change (%, negative = inhibition) at 1uM [%]
COc1ccc(-c2nnc(Sc3nc4ccccc4o3)c3ccccc23)cc1	1.11
Cc1ccc(/C=N/NC(=O)CSCc2ccc(Cl)cc2)cc1	13.6
O=C(Cn1cc(C(=O)c2ccccc2)c2ccccc21)NCc1ccco1	1.85
O=C(NCCc1ccccc1)C1CCC(Cn2c(=O)c3ccccc3n(Cc3cccc(F)c3)c2=O)CC1 (stereo not shown)	13.6
COc1ccc(CCNC(=O)COC(=O)CCC(=O)c2ccc(F)cc2)cc1OC	9.83
COc1ccccc1NC(=O)Nc1nc(CC(=O)N2CCN(c3ccccc3)CC2)cs1	7.19
O=C(CCCCCNC(=O)c1ccccc1)N/N=C/c1ccccc1O	12.1
COC(=O)c1ccc(N2C(=O)CC(SCCN)C2=O)cc1 (stereo not shown)	3.93
O=C1COc2ccc(C(=O)COC(=O)c3ncc(Cl)c(Cl)c3Cl)cc2N1	12.8
Cc1noc(C)c1CSCC(=O)Nc1cc(S(C)(=O)=O)ccc1Cl	12.8
O=C(COC(=O)c1cc[n+]([O-])cc1)Nc1ccccc1Cl	4.57
CN(CCC1CCOCC1)C(=O)c1cc(COc2c(F)cccc2F)on1	-1.87
NC(=O)c1nn(Cc2ccccc2)c(=O)c2ccccc12	11.7
COc1cc(OC)c(NC(=O)CCCn2c(=O)oc3ccccc32)cc1Cl	14
COc1cccc(/C=N/n2c(-c3ccco3)nc3ccccc3c2=O)c1	0.572
Cc1ccc(C(=O)NC(=S)NNC(=O)c2ccc([N+](=O)[O-])cc2)cc1	9.14
CC(=O)Nc1c(Br)cc(N2C(=O)CCC2=O)cc1Br	7.86
Cc1onc(-c2c(Cl)cccc2Cl)c1C(=O)NC(=S)N1CCOCC1	14
COc1cc2c(cc1OC)C1(C)N(CC2)C(C(C)=O)=NN1c1ccc(Cl)cc1 (stereo not shown)	11.6
N#CCOc1coc(CN2CCN(c3cccc(Cl)c3)CC2)cc1=O	14.6
O.O=C(OCC1OC2C(Oc3nc(=O)ccn32)C1O)c1ccccc1 (stereo not shown)	5.53
CC(C)N1C(=O)/C(=C\c2nc3ccccc3c(=O)[nH]2)c2ccccc21	10

SMILES	hERG current change (%, negative = inhibition) at 1uM [%]
CC(O/N=C\c1ccccc1O)C(=O)Nc1ccccc1C(=O)N1CCOCC1 (stereo not shown)	15.5
CC(C(=O)NCC1CCCO1)n1cccc1C(=O)c1ccccc1 (stereo not shown)	13.1
COC(=O)C1=C(O)/C(=C\c2ccc(CNS(=O)(=O)c3ccc(Cl)cc3)o2)N=C1C	14.2
CC1(C)CC(=O)C2=C(C1)N(Cc1ccccc1)C(=O)C2(O)C(F)(F)F (stereo not shown)	4.92
Cc1ccc(S(=O)(=O)N2Cc3ccccc3CC2C(=O)Nc2cc(C)on2)cc1 (stereo not shown)	5.58
Cc1sc2nc(SCC(=O)Nc3c(C)n(C)n(-c4ccccc4)c3=O)n(C)c(=O)c2c1C	10.3
COC(=O)c1cc(NS(=O)(=O)c2ccc(NC(C)=O)cc2)ccc1Cl	13.1
Cc1nc(Sc2ccc(Br)cc2)c(C#N)c(C)c1[N+](=O)[O-]	19.8
Cc1ccc(-n2nc3c(=O)n(CCCC(=O)NCc4cccc(F)c4)nc(C)c3c2C)cc1	7.09
O=C(O)c1cc(NC(=O)C2CCCO2)cc(C(=O)O)c1 (stereo not shown)	23.3
COc1ccc([C@H]2CC(=O)C=C(c3ccc4c5c(cccc35)CC4)C2)cc1	16.6
CC(NC(=O)Cc1ccccc1)C1COc2ccccc2O1 (stereo not shown)	4.69
CCOc1ccc(-c2nnc(SCC(=O)N3CCN(c4ccccc4)CC3)o2)cc1	7.47
CC(C)(C)C1(C)OC(C(N)=O)C(C(N)=O)O1 (stereo not shown)	10.6
CC(=O)Nc1ccc(S(=O)(=O)Nc2ccc(C)c([N+](=O)[O-])c2)cc1	-4.1
CCc1ccc(OCC(=O)N2CCN(Cc3ccc4c(c3)OCO4)CC2)cc1	7.15
N/C(=N\OC(=O)c1ccc2c(c1)OCO2)c1cccc([N+](=O)[O-])c1	12.7
CSCC[C@H](NC(=O)C1CCC(CNC(=O)[C@@H](N)Cc2ccccc2)CC1)C(=O)O.Cl (stereo partly shown)	12.3
CCCn1c(N)c(C(=O)CSc2nnc(-c3ccoc3C)n2C)c(=O)n(C)c1=O	5.38
